The other results are listed elsewhere or left out. The list includes weakly bound sequences.

The target in this experiment is MaxL homodimer (UniProt P61244). The experiment in a line: universal protein-binding microarray (PBM). The following applies: PBS-based mixture, 10 nM His-tagged protein dimer, 2% milk, 200 ng/uL BSA, 50 ng/uL salmon testes DNA, 0.02% TX-100; detection with Alexa 488 anti-His …; high values mean tight binding; most listed sequences are background and not binding sites; double strand, one strand shown.
Chain of UniProt P61244 (P61244 whole entry): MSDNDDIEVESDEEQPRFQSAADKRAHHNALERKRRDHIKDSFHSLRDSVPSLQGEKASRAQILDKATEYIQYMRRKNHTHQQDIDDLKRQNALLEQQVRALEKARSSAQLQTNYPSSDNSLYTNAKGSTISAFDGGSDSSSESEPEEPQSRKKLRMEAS
As to ATAAGGAG, the binding signal (normalized occupancy) was found to be 0.0759. As for ACCCTGCA, the binding signal (normalized occupancy) worked out at 0.0751. In the case of CTGTCTCA it was 0.0747; in that of CTTTGAAC, 0.0689; in that of GCCTGAAA, 0.0701. In the case of AATGCAGG it was 0.08. In the case of CCTTGTTA it was 0.0737; in that of ATGAGGAC, 0.0862; in that of GAATGCAA, 0.0742. Regarding AATGGACC, the binding signal (normalized occupancy) amounted to 0.073. In the case of ACTCATCT it was 0.078; in that of AAAGCCAA, 0.0666; in that of AAATCTTA, 0.075.

Regarding AAAGTCGC, the binding signal (normalized occupancy) was found to be 0.065.

Consider CCTGCGCA, for which the binding signal (normalized occupancy) turned out to be 0.0738. The value for AAACTGGC was 0.071; that for ATGACAAA was 0.0782; that for ATTGTCAA was 0.0786.

In the case of CGCCCATC, the binding signal (normalized occupancy) was determined as 0.0733.

In the case of CACTGGGC, the binding signal (normalized occupancy) came out at 0.0746. Take AAGTAGGT: the binding signal (normalized occupancy) was 0.0741.

As to ACCATTGG, the binding signal (normalized occupancy) is 0.07.

Take AGCCCACC: the binding signal (normalized occupancy) turned out to be 0.0778. In the case of AGAACAAG it was 0.0731; in that of ACCGAGCC, 0.0667.

For CCCAACCA, the binding signal (normalized occupancy) came to 0.0747. Turning to GGGCACTA, the binding signal (normalized occupancy) was found to be 0.075.

Regarding AGCTTCAG, the binding signal (normalized occupancy) was 0.0661. On to CCCGCAGC, for which the binding signal (normalized occupancy) was 0.0632. The value for GATAGTAC was 0.073; that for ATCGGGCG was 0.0738; that for GAGAATGC was 0.0826.

Consider ATTGTTTG, for which the binding signal (normalized occupancy) was found to be 0.073. In the case of GAATCCGC it was 0.0724; in that of GCGAGTCA, 0.0725. The value for ATTGTCTG was 0.0774; that for CCGTCAAG was 0.0709.

On to GTCCGCCA, for which the binding signal (normalized occupancy) was 0.0738.

As to AGGCTCGA, the binding signal (normalized occupancy) worked out at 0.0701. Regarding TAGGGCAA, the binding signal (normalized occupancy) is 0.069. In the case of AAAAATTG it was 0.0784; in that of TACACAAA, 0.0756.

As to CCTCGTTC, the binding signal (normalized occupancy) amounted to 0.0806. For ACGATCTG, the binding signal (normalized occupancy) was 0.0791.

CGAGTCCA: the binding signal (normalized occupancy) was 0.0775. As for GTCTAAAA, the binding signal (normalized occupancy) was 0.0747. Turning to ACATAGGG, the binding signal (normalized occupancy) turned out to be 0.0814. In the case of CCATGCAA it was 0.0895. The value for GCCATACA was 0.0813.

Turning to GAAGACGA, the binding signal (normalized occupancy) was found to be 0.0709. In the case of CACTGCAG it was 0.0735; in that of AATTACCC, 0.0792. Turning to TGTAATAA, the binding signal (normalized occupancy) amounted to 0.0791.

As to AGGGACTA, the binding signal (normalized occupancy) worked out at 0.0805. The value for CAGAAGGG was 0.0737. In the case of AAAATGCA it was 0.0766; in that of AAGGGACA, 0.0766. In the case of AAGGTCAC it was 0.0771; in that of GTCCATTA, 0.0766; in that of ACGCGAGA, 0.0802. CAGAGACG: the binding signal (normalized occupancy) turned out to be 0.0739. In the case of TCTTACCA it was 0.0777; in that of ATTGCAAG, 0.0752.

As for TGCAAGCA, the binding signal (normalized occupancy) is 0.0718. The value for GGGTAAAC was 0.0784. In the case of AAATTTCG it was 0.0663; in that of CAGGTGAG, 0.0881. In the case of AACTATAC it was 0.0834; in that of ACATCATC, 0.0854; in that of ATTAGTCG, 0.077.

With CAGTGTAG, the binding signal (normalized occupancy) came to 0.0731.

As to GCACACAC, the binding signal (normalized occupancy) is 0.0907. In the case of ACACAGAT it was 0.079. In the case of AGAAAGAT, the binding signal (normalized occupancy) amounted to 0.0767. In the case of GGGAAGAA it was 0.0707; in that of TAGGATGA, 0.0742.

Turning to CAGGCGGC, the binding signal (normalized occupancy) is 0.0721. In the case of GCTTCAGA it was 0.0698.

Take ATGCCGGA: the binding signal (normalized occupancy) came out at 0.0718. In the case of AGTACTTG it was 0.0732; in that of ACCCACTC, 0.0722. In the case of CACCATAC it was 0.0807. In the case of AATCACCA it was 0.077; in that of ACAGTACG, 0.0729. On to AGGTTATC, for which the binding signal (normalized occupancy) was 0.078. The value for AAGGTTTC was 0.0742; that for CTATTTTC was 0.0775; that for AGACAATC was 0.0771. In the case of CTACTTAA it was 0.0713; in that of GATTGGAA, 0.0707. The value for AGCTATCC was 0.0729; that for GGCCGAGA was 0.0674; that for GTCGAGCA was 0.0704. Regarding ACGCCGAT, the binding signal (normalized occupancy) was 0.0771.

For the sequence AGTCCTGC, the binding signal (normalized occupancy) came to 0.0718. The value for ACGGGCAG was 0.0759.

For AAGGATCT, the binding signal (normalized occupancy) came out at 0.0771. Take GCACAAAC: the binding signal (normalized occupancy) amounted to 0.0731.

On to GACAAAAA, for which the binding signal (normalized occupancy) came to 0.074. The value for CGAAAAAG was 0.0732.

On to GGACGTTA, for which the binding signal (normalized occupancy) was found to be 0.0789. The value for CCGGGAGG was 0.0699; that for AATCGGAC was 0.0716.

Regarding CTGGCTAC, the binding signal (normalized occupancy) was 0.0703. For CTTTATCC, the binding signal (normalized occupancy) stood at 0.071. In the case of CGCAAAGC it was 0.0658. The value for ACTGTGAG was 0.0805; that for AGTTGGTC was 0.0747; that for ACGGTTAT was 0.0819. The value for GGGTAACA was 0.0825. AACAGGGG: the binding signal (normalized occupancy) amounted to 0.0829. The value for AGAGCCCA was 0.0706. In the case of ACGGGTAA it was 0.0784; in that of ACGGCCCA, 0.0728. In the case of ATGCCTCC it was 0.0785; in that of CTGGTACA, 0.0794; in that of CCCCGCAA, 0.0739. In the case of AATGAACA, the binding signal (normalized occupancy) was determined as 0.0796. In the case of TGAGCGAA it was 0.0709; in that of ACGCGCAA, 0.0715; in that of ATGAGGGC, 0.0956. As to CAACCTGC, the binding signal (normalized occupancy) is 0.076. The value for AAGTCCTG was 0.0704; that for AAATTGAC was 0.0744; that for AGCAGCGA was 0.0704. In the case of GGCAACTA it was 0.072; in that of GTGATTCA, 0.0783; in that of CTTGCATC, 0.072. The value for CTTCTTTA was 0.075; that for GAAGGCTC was 0.0674; that for CTCTCTAC was 0.0734. On to CGTATGCA, for which the binding signal (normalized occupancy) came out at 0.0828.

As for ACCTTGGC, the binding signal (normalized occupancy) amounted to 0.0701. The value for CTTATGAC was 0.0773; that for TTACCAAA was 0.0699; that for AAGCTGGG was 0.0713. The value for ATCCATAG was 0.0811. The value for ACCTTACC was 0.0707; that for CGGCACCG was 0.0648. On to CACGATGA, for which the binding signal (normalized occupancy) was 0.0862. With ATTGCATA, the binding signal (normalized occupancy) was 0.0797. On to AGACCTAA, for which the binding signal (normalized occupancy) is 0.0738. In the case of ACCTCTAT it was 0.0776.

With GAGGAGTA, the binding signal (normalized occupancy) came to 0.0781. The value for AATACGGG was 0.0747. In the case of ACTGGCCA it was 0.0733; in that of ATGTTGTC, 0.0895. In the case of AGATACAG it was 0.0792. With CGCGTGGA, the binding signal (normalized occupancy) was found to be 0.147. For GGCGACCA, the binding signal (normalized occupancy) came out at 0.0707.

As to AAATATCT, the binding signal (normalized occupancy) came to 0.074. The value for ATAAGAGG was 0.073. As for ACAGACCC, the binding signal (normalized occupancy) is 0.0739. In the case of CGCCGGCG it was 0.0622; in that of CTGTAACA, 0.0851. In the case of GGGGCCAA it was 0.072. In the case of ATAAGCGC it was 0.0758; in that of ACAATCTA, 0.0768; in that of AATTGAGG, 0.0713. Turning to ATAAAGAT, the binding signal (normalized occupancy) was 0.0762.

Take AGAACTGA: the binding signal (normalized occupancy) stood at 0.0716.

Take CTCGAGGA: the binding signal (normalized occupancy) came out at 0.0818. The value for ACCCAAGG was 0.0705; that for AAATCAGC was 0.075; that for CGTCGTAA was 0.0759. In the case of AGGTCGCG it was 0.0706. Turning to TAACAATA, the binding signal (normalized occupancy) turned out to be 0.0763. The value for ACAGAGGC was 0.0742; that for AGTATGCA was 0.0786; that for GTTCCAGA was 0.0714. The value for CACACCTG was 0.0932. In the case of TAGTCGCA it was 0.0765.

These data come from article PMC4242493.
